Data taken from patent CN115010810A (NANJING SANHOME PHARMACEUTICAL CO LTD, dated 2022).

Key:
[1] = molecular target: T1, PD-1 on the surface of hPD-1-CHO-K1 cells (human, UniProt Q15116 25-288); experiment: FACS on CHO-K1-PD-1 cells
T1 construct: also called 细胞表面PD-1; CHO-K1-PD-1

[2] = molecular target: T2, human CTLA-4 on the surface of CHO-K1-CTLA-4 cells (human, UniProt P16410 36-223); experiment: FACS on CHO-K1-CTLA-4 cells
T2 construct: also called 细胞表面hCTLA-4; CTLA-4 on CHO-K1-PD1-CTLA-4 cells
T2 sequence: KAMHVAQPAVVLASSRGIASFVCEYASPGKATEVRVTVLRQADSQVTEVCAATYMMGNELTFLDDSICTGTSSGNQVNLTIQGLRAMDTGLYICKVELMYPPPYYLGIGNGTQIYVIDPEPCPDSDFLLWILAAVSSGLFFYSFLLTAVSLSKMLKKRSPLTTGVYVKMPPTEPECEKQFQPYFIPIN

[3] = molecular target: T3, 人CTLA-4-His蛋白 (human CTLA-4 extracellular domain fused to His tag) (human, UniProt P16410 36-161); experiment: ELISA, human CTLA-4-His coated
T3 construct: also called hCTLA-4-His
T3 sequence: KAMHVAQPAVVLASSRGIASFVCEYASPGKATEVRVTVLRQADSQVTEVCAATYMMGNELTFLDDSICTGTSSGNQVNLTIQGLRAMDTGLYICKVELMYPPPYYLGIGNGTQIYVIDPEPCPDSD

[4] = molecular target: 人PD-1-His蛋白 (自产; human PD-1 extracellular domain with His tag) (human, UniProt Q15116 in part); experiment: BLI (Fortebio Octet RED96), antibody on AHC sensor, PD-1-His as analyte

Measured: binding result

B1: BsAB0192-1 (bispecific antibody, human IgG4 S228P, kappa)
heavy: QVQLVQSGAEVKKPGASVKVSCKASGYTFTWYHMSWVRQAPGQGLEYMGYINTRSGDTYYNEKFKGRVTMTTDTSTSTAYMELRSLRSDDTAVYYCARSGYGGSDYWGQGTLVTVSSASTKGPSVFPLAPCSRSTSESTAALGCLVKDYFPEPVTVSWNSGALTSGVHTFPAVLQSSGLYSLSSVVTVPSSSLGTKTYTCNVDHKPSNTKVDKRV[omitted - human IgG4 Fc with S228P (EU numbers)]GGGGSGGGGSGGGGSQVQLVESGGGVVQPGRSLRLSCAASGFTFSNYAMSWVRQAPGKGLEWVAEISYSGTYSYHSDTVTGRFTISRDNSKNTLYLQMSSLRAEDTAVYYCTRRDYDNEMDYWGQGTLVTVSSGGGGSGGGGSGGGGSGGGGSDIQMTQSPSSLSASVGDRVTITCRTSQVITNYLNWYQQKPGKAPKLLIYYTSRLHSGVPSRFSGSGSGTDYTLTISSLQPEDFATYYCQQFGKRPPTFGGGTKVEIK
light: DIVMTQSPDSLAVSLGERATINCKSSQNLLYSENKKNSLAWYQQKPGQPPKLLISWASTREFGVPDRFSGSGSGTDFTLTISSLQAEDVAVYYCEQYYDILPTFGGGTKVEIKRTVAAPSVFIFPPSDEQLKSGTASVVCLLNNFYPREAKVQWKVDNALQSGNSQESVTEQDSKDSTYSLSSTLTLSKADYEKHKVYACEVTHQGLSSPVTKSFNRGEC
notes: BsAB0192-1 = ScFv-[P01-22-C92-11]; also called ScFv-[P01-22-C92-11]; 抗CTLA-4/抗PD-1双特异性抗体
binds: all assays above
